# Results taken from ChEMBL document CHEMBL1157539, “Thousands of chemical starting points for antimalarial lead identification” (Nature, 2010).
# Whole data set: some 13,000 compounds, median “IFI” near 4, cut for the highest 2% near 17. The list shows a part of the results.
# Experiment: GSK_TCMDC: Inhibition Frequency Index (IFI). The number of non-kinase HTS assays where a compound showed > 50 % inhibition, expressed as a percentage of the number of such assays in which the compound was tested (-0 is zero)
# Format: functional
row,Compound,IFI [%]
1,O=C(/C=C/c1ccc(Cl)c(Cl)c1)N1CCC(NCc2ccc3[nH]ccc3c2)CC1,3.85
2,Cc1cccc2nc(O)c([N+](=O)[O-])c(O)c12,1.52
3,OCCN1CCN(C(=S)NC2CCCCC2)CC1,0
4,CCOc1ccc(C(=O)Nc2cc(Br)c3c(c2)CNCC3)cc1C#N,3.6
5,COc1ccc(S(=O)(=O)NC2CCN(c3ccnc4cc(Cl)ccc34)C2)cc1 (configuration not stated),4.62
6,CCCNCc1ccc(-c2ccc(CN(Cc3cnc(C)cn3)C(=O)CC#N)cc2)nc1,1.4
7,COc1ccc(Cl)cc1NC(=O)CN(C)C(=O)c1cnn(-c2ccccc2)n1,1.98
8,CCOC(=O)CCCCOc1c(OC)cc(Cc2cnc(N)nc2N)cc1OC,0.74
9,CCn1cc(CN2CCCC(C(=O)Nc3ccc(-c4nc5ccccc5[nH]4)cc3)C2)c(C)n1 (configuration not stated),-0
10,FC(F)(F)c1cccc(N=C(S)NN=Cc2ccccn2)c1,4.72
11,CCCC(=O)Nc1ccc(OCCCN(Cc2ccccc2OC(F)(F)F)c2ccc(C#N)c(C(F)(F)F)c2)cc1,-0
12,FC(F)(F)c1cccc(CCNc2nccc(NCc3ccccc3Cl)n2)c1,8
13,CCOC(=O)Cc1nc(C(=O)OCC)c(N)[nH]1,0
14,COC(=O)C(=O)c1c(-c2ccccc2)c(-c2ccc(OC)c(OC)c2)c2c3cc(OC)c(OC)cc3ccn12,-0
15,Cc1cccc2nc(-c3ccc(-c4ccc(NC(=O)C(C)CN(C)C)cc4)cc3)[nH]c12 (configuration not stated),5.41
16,CC(C)N1CCN(C(=O)c2ccc(CNCCCN3CCN(c4cccc(Cl)c4Cl)CC3)s2)CC1,12.1
17,O=[N+]([O-])c1ccc(-c2ccc(C=NNc3nc(Nc4ccccc4)nc(Nc4ccccc4)n3)o2)cc1,0.72
18,COc1cc(NCCCNCC2c3ccccc3Oc3ccccc32)nc2ccccc12,20.8
19,CCCCCCP(=O)(COc1ccc(CCN(CC(O)COc2cccc3[nH]c(C(N)=O)cc23)CC(O)COc2cccc3[nH]c(C(N)=O)cc23)cc1)OCCCC (configuration not stated),5.59
20,COc1ccc(CNC2CCN(C)CC2)cc1-c1ccc(S(=O)(=O)NCCN2CCCC2)s1,-0
21,O=c1cc(NCCCNCc2ccc(C(F)(F)F)s2)[nH]c2ccccc12,0.72
22,CC1(C)NC(N)=NC(=N)N1OCCSc1ccc(Cl)c(Cl)c1,6.67
23,COc1ccc(C(=O)CCC(=O)N(Cc2ccc(-c3ccc(CNCc4cccnc4)cn3)cc2)C2CCN(Cc3ccccc3)CC2)cc1F,4.73

row,Compound,IFI [%]
1,CC(C)C[C@H](NC(=O)c1cc(-c2ccc(C(C)(C)C)cc2)no1)C(=O)O.CC(C)C[C@H](NC(=O)c1conc1-c1ccc(C(C)(C)C)cc1)C(=O)O,0.74
2,CC(C)(CNCc1ccccc1)c1nc(-c2ccc(Cl)c(O)c2)c(-c2ccncc2)[nH]1,8.9
3,NC(=O)c1cc2nc(Nc3ccc(F)cc3)nc(NC3CCC3)c2[nH]1,11.9
4,CCC[C@@H]([C@@H](CC1CCC(C)CC1)C(=O)N[C@@H](CO)C(=O)Nc1nccs1)N(O)C=O (some centres not stated),1.6
5,O=c1cc(N2CCNCC2)c(Cl)nn1Cc1ccc(NS(=O)(=O)c2ccc(Oc3ccccc3)cc2)cc1,6.9
6,Cc1noc(C)c1-c1cccc(CNCc2cccc(-c3cccc(-c4nc5cc(F)ccc5[nH]4)c3)c2)c1,5.88
7,CC(C)NCc1cccc(-c2cccc(NC(=O)c3cccc(C#N)c3)c2)c1,0.98
8,COc1cc2ncnc(Nc3ccc4nc(-c5ccccc5)[nH]c4c3)c2cc1OC,4.2
9,CC(C)c1cc2c(ccc3nc(N)nc(N)c32)o1,4
10,O=C(NC1CCN(CC2(c3ccccc3)CCCC2)CC1)c1n[nH]cc1Cl,-0
11,CN1CCC(NCc2cccc(-c3ccc(S(=O)(=O)NCCc4ccccn4)c(F)c3)c2)CC1,1.67
12,COc1ccc(NC(=O)NC2CCN(CCCOc3ccnc4cc(Cl)ccc34)C2)cc1OC (configuration not stated),-0
13,O=C(NCCOc1ccccc1)[C@H](Cc1ccccc1)Nc1ccnc(NCC2CCCCC2)n1,20
14,Clc1ccc(C2CCN(CCCOc3ccc4c(c3)CCNCC4)CC2)cc1,10
15,Cc1cc(C(=O)Nc2ccc(OCc3ccccc3)cc2)on1,-0
16,COc1ccc2ncc(Cl)c(CCN3CC[C@@H](CNCc4cc5c(cn4)OCS5)C3)c2n1,4.46
17,Cc1cc(N2CCN(C3CCCCC3)CC2)nc2cccc(O)c12,0.95
18,O=C(Nc1cc(C(F)(F)F)ccc1N1CCOCC1)C(Cl)(Cl)Cl,2.13
19,COc1cccc(NC(=O)c2cc(C(=O)Nc3cccc(OC)c3)cc([N+](=O)[O-])c2)c1,4.17
20,CC(C)CNC(=O)c1cncc(-c2ccc(CNC3Cc4ccccc4C3)cc2)c1,4.92
21,O=C(Nc1ccc(F)cc1)c1ccc(C(=O)NC2CCN(CC3CCCCC3)CC2)cc1,2.68
22,COc1ccc(Nc2nc(N/N=C/c3ccc(-c4ccc([N+](=O)[O-])cc4)o3)nc(Nc3ccccc3)n2)cc1,0.74
23,CN(c1ccc2c(c1)nc(Nc1ccc(Cl)cc1)n2C)c1ccnc(Nc2ccc(CS(C)(=O)=O)cc2)n1,9.85

row,Compound,IFI [%]
1,CCOc1ccccc1C1C(C(=O)C(C)(C)C)N2c3ccc(Br)cc3C=CC2C12C(=O)c1ccccc1C2=O (configuration not stated),16.9
2,COc1ccc(NC(=O)/C=C/c2ccc(Cl)c(Cl)c2)cc1N1CCN(C)CC1,2.22
3,N#Cc1ccc(CN2CCCN(Cc3cccc(NC(=O)c4ccc(-c5ccccc5)cc4)c3)CC2)cc1,8.28
4,O=C(NCCCCN1CCC(C(c2ccccc2)c2ccccc2)CC1)c1ccc(NC(=O)c2ccc(Cl)cc2)cc1,3.79
5,CS(=O)(=O)c1ccc(OCCCN(Cc2ccccc2C(F)(F)F)c2ccc(C#N)c(C(F)(F)F)c2)cc1,0.74
6,Cc1[nH]c(C)c(-c2ccc(CCc3ccc(F)cc3F)cc2)c(=O)c1Cl,0
7,N=c1[nH]c2cccc3ccc4cccc1c4c32,3.65
8,CCc1c(CCNCCCCCCNCc2ccc3c(c2CC)OCO3)ccc(OC)c1OC,8.09
9,CCCCNC(=O)C(C)NC(=O)c1ccc(O)c(-c2ccc(Cl)c(Cl)c2)c1 (configuration not stated),2.96
10,O=C(Nc1ccc2ccccc2n1)c1ccccc1-c1ccccc1,6.74
11,O=S(=O)(NCCN1CCCC1)c1ccc(-c2ccc(CNCc3ccsc3)cc2)cc1F,9.43
12,NCc1cccc(-c2ccccc2CNC2CCN(Cc3ccccc3)CC2)c1,2.92
13,CN(C)c1ccc(OCCCCCCOc2ccccc2)cc1,0.72
14,CC(C)NCc1ccc(-c2ccc(CN3CCCC(c4ccccc4)C3)cc2)c(C(=O)NC2Cc3ccccc3C2)c1 (configuration not stated),4.26
15,COc1ccc2nccc([C@@H](O)CN3CCC(NCCOc4ccccc4C(F)(F)F)CC3)c2c1,1.46
16,N=C(N)NC(=O)Nc1cc(Cl)c(Cl)c(Br)c1,5.34
17,CC(CNC(=O)C(c1cc2ccccc2o1)N1CCN(C(c2ccccc2)c2ccccc2)CC1)c1ccccc1 (configuration not stated),1.46
18,Cc1cccc(C)c1CNc1cccc(-c2nc(C)c(C)[nH]2)c1,3.7
19,c1cc(CNCC2CCN(CC3CCCCC3)CC2)cc(-n2ccnc2)c1,1.38
20,Cc1noc(-c2ccc3c(c2)CCN(CCC2CCC(NC(=O)/C=C/c4ccc(F)cc4)CC2)CC3)n1 (configuration not stated),1.42
21,CCN(CCCN1CCCCC1)c1cc(C)nc(Nc2cc(Cl)ccc2C)n1,5.13
22,CCCc1cc(N2CCC(c3ccccc3)(N3CCCCC3)CC2)nc(Nc2ccc(OC)cc2)n1,5.95
23,Oc1ccc(Nc2nc(NCc3ccccc3)c3ccccc3n2)cc1,10.7

row,Compound,IFI [%]
1,CCSc1ccccc1CON1C(=N)N=C(N)NC1(C)C,5.56
2,CCOC(=O)C1=C(C)NC(C)=C(C(=O)OCC)C1(C(=O)OCc1ccccc1)c1cccc(C(F)(F)F)c1,2.38
3,Cc1ccccc1C1CCN(C2CCC(NC(=O)c3ccc(-c4ccccn4)s3)CC2)CC1 (configuration not stated),7.02
4,CCOc1cc(C(=O)N[C@@H](Cc2ccccc2)[C@H](O)CNCc2cc(OC)cc(OC)c2)cc(N2CCCC2=O)c1,2.88
5,O=C(/C=C/c1ccccc1Cl)Nc1ccc(Br)c(OCCN2CCN(CCN3CCOCC3)CC2)c1,4.29
6,Clc1ccc2c(NCCc3ccccc3)ccnc2c1,5.19
7,N#Cc1ccc2[nH]cc(C(=O)CCCCCN(Cc3ccccc3)Cc3ccccc3)c2c1,1.52
8,COc1cc(F)c2nccc([C@@H](O)CN3CCC(NCc4ccc5c(n4)NC(=O)CS5)C(F)C3)c2c1 (some centres not stated),6.67
9,COc1ccc2ncc(C#N)c(CCN3C[C@H](CNCc4ccccc4)[C@H](O)C3)c2n1,1.96
10,CCOC(=O)c1c(C)noc1Nc1cccc(C)c1C,0.74
11,Cc1nc(-c2ccc(-c3ccc(NC(=O)c4coc5ccc(N6CC(C)NC(C)C6)cc45)cc3)c(C)c2)no1 (configuration not stated),5.76
12,Cc1cc(NCCC(=O)Nc2ccccc2)nc(NCc2ccccc2C)n1,13.9
13,c1ccc(-c2csc(Nc3nc4cc5c(cc4s3)OCO5)n2)nc1,8.26
14,Oc1c(Cl)cc(-c2ccccc2)cc1CNC1CCCCC1,-0
15,O=C(/C=C/c1ccc(Cl)c(Cl)c1)NCCCCCN1CCC(NC(=S)Nc2ccc(Cl)c(Cl)c2)CC1,11.9
16,O=C(c1ccc(O)c(-c2cc(Cl)cc(Cl)c2)c1)N(CCO)CCO,0.74
17,c1ccc(Nc2nc(-c3ccccn3)cs2)nc1,8.51
18,O=C(CN1CCN(C(C(=O)Nc2cc(C(F)(F)F)ccc2Cl)c2ccccc2)CC1)NC1CC1 (configuration not stated),2.74
19,CCCCN1Cc2c(n(CC(=O)Nc3ccccc3)c3cc(-c4ccccc4)nn3c2=O)C1=O,-0
20,O=C(NCc1ccc(F)cc1)Nc1ccc(-c2ccc(-c3nc4ccccc4[nH]3)cc2)cc1,6.78
21,CC(C)c1ccc(C=CC(=O)N2CCC(CCN3CCC(c4c[nH]c5ccccc45)CC3)CC2)cc1,7.19
22,O=C(/C=C/c1ccc(Cl)c(Cl)c1)NCCCCN1CCCN(C(=O)Nc2ccc(C(F)(F)F)cc2)CC1,9.92
23,Cc1ccc(NC(=O)NC2CCN(c3ccnc4ccccc34)CC2)cc1,3.03
